Publication PMC4336329 (PLoS ONE, 2015)
About 2,200 (0.71%) of roughly 310,000 compounds showed an effect of 50% or more. Effects have a minus sign here. This is one part of the list.

Each compound was assayed against human ether-à-go-go-related gene (hERG) potassium channel (human, UniProt Q12809) (assay: primary screen, population patch clamp on CHO cells stably expressing hERG).
human ether-à-go-go-related gene (hERG) potassium channel, sequence (Q12809 whole entry, looked up): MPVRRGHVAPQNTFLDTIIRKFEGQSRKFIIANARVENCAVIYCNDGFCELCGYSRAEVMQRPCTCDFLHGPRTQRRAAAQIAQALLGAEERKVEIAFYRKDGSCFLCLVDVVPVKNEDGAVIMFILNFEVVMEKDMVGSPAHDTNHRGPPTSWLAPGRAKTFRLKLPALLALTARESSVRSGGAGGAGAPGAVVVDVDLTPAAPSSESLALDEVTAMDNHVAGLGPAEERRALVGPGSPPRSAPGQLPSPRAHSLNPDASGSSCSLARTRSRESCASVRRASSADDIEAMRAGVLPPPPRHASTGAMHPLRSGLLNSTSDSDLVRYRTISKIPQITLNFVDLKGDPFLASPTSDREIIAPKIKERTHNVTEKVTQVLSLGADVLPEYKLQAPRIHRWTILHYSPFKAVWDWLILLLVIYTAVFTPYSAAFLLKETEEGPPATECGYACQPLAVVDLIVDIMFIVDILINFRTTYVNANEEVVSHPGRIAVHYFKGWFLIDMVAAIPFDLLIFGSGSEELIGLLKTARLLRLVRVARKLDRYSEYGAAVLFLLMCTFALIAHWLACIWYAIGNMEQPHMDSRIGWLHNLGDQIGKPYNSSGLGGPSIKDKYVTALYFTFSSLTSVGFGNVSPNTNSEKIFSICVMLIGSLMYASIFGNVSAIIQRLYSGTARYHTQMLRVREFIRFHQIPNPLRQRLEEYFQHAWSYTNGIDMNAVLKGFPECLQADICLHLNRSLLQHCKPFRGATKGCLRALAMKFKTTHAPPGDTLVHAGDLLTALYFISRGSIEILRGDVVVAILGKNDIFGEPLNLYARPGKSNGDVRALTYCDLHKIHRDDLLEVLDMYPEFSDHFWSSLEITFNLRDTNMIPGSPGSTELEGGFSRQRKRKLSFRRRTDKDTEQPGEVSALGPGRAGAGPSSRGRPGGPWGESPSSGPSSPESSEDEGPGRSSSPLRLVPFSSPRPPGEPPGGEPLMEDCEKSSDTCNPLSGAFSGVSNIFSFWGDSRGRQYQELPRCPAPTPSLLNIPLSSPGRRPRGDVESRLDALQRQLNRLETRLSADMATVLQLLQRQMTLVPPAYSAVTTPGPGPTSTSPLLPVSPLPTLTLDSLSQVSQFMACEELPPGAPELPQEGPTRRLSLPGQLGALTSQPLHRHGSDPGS

Row | Structure (SMILES) | hERG current change (%, negative = inhibition) at 1uM
1 | CCS(=O)(=O)N1CCC(C(=O)Nc2cccc(C(C)=O)c2)CC1 | -1.8%
2 | Cc1cc(-c2nc3c4c5c(sc4[nH]c(=O)n3n2)CCC5)c(C)o1 | 1.54%
3 | CC1=C(C(N)=O)C(c2cccc(OCc3ccccc3)c2)n2nnnc2N1 (stereo not drawn) | 24.7%
4 | N#Cc1ccccc1OCC(=O)C1CC1 | 15.5%
5 | COc1cc(C)ccc1OCc1cc(C(=O)N(C)CCCN2CCOCC2)no1 | -7.67%
6 | COc1ccc(OC)c(CCNC(=O)CSc2ccsc2[N+](=O)[O-])c1 | 14.7%
7 | O=C(CN1CCCCC1)NNc1nc(-c2ccccc2)c2cc(Cl)ccc2n1 | -4.88%
8 | OCCC1CN(Cc2cccc(C(F)(F)F)c2)CCN1Cc1ccccc1 (stereo not drawn) | 2.89%
9 | NC(=O)NC(=O)CSc1nc2cc([N+](=O)[O-])ccc2n1-c1cccc(C(F)(F)F)c1 | -4.93%
10 | Cn1cc(S(=O)(=O)CC(=O)Nc2ccc3c(c2)OCCO3)c2ccccc21 | 11.4%
11 | CCOC(=O)C1CCN(C(=O)CN(c2cccc(OC)c2)S(=O)(=O)c2ccccc2)CC1 | -12.3%
12 | O=C(OCn1nnc2ccccc2c1=O)c1cccnc1Cl | 12.9%
13 | CC(=O)Nc1cccc(NS(=O)(=O)c2cccc3nsnc23)c1 | 7.12%
14 | C/C=C/C=N\NC(=O)c1ccncc1 | 15.5%
15 | O=C(Oc1c(CN2CCOCC2)cc(Cl)c2cccnc12)c1ccccc1 | 8.02%
16 | CN(C)CCCNC(=O)N1c2ccccc2C=Cc2ccccc21.Cl | 15.7%
17 | CCCCn1c(N)c(N(CC(C)C)C(=O)c2cc(Cl)nc3ccccc23)c(=O)[nH]c1=O | 5.82%
18 | Cc1cccc(CN2[C@@H](CC(C)C)COCCS2(=O)=O)c1 | 19.4%
19 | CC(C)c1nc(Cl)c(C#N)c2c1COC(C)(C)C2 | 7.04%
20 | Cc1cc(C)nc(/N=C(\N)N2CCc3ccccc32)n1 | -4.32%
21 | O=[N+]([O-])c1ccccc1-c1ccc(C(=S)N2CCCCC2)o1 | 21.6%
22 | COc1ccc2c(C)c(CC(=O)N3CCN(C(=O)C4COc5ccccc5O4)CC3)c(=O)oc2c1C (stereo not drawn) | 11.8%
23 | Cc1c(-c2ccccc2)c(=O)oc2cc(O)ccc12 | 6.34%

Row | Structure (SMILES) | hERG current change (%, negative = inhibition) at 1uM
24 | CCN(C(=O)CSc1nnc(-c2ccc(Cl)cc2)n1C)C1CCS(=O)(=O)C1 (stereo not drawn) | 9.99%
25 | Nc1cccc(-n2nncc2-c2ccccc2)c1 | -15.8%
26 | CC1CCCCN1C(=O)COc1ccccc1F (stereo not drawn) | 7.06%
27 | O=C1COc2ccc(C(=O)c3ccccc3C(=O)NCc3ccco3)cc2N1 | 2.72%
28 | O=C(/C=C/c1ccc(OCCCF)cc1)N1CCN(Cc2ccccc2)CC1 | -4.73%
29 | Cc1ccccc1OCC(=O)NN1C(=O)C2C3C=CC(O3)C2C1=O (stereo not drawn) | 11.1%
30 | Cc1ccc(N(Cc2cc(=O)[nH]c3ccccc23)C(=O)C(C)C)cc1 | 0.865%
31 | Cc1nc(N)nc(-c2ccccc2O)n1 | 17.5%
32 | CCc1ccc(OCC(=O)OCC(=O)NCCNC(=O)COC(=O)COc2ccc(CC)cc2)cc1 | 15.4%
33 | Cc1ccc(N=C2SC(C(=O)Nc3ccc(OC(F)(F)F)cc3)C(N)=C2C(=O)Nc2c(C)cc(C)cc2C)cc1 (stereo not drawn) | 8.87%
34 | O=C(C1CC=CCC1)N1CCN(C(=O)C2CC=CCC2)CC1 (stereo not drawn) | 13.2%
35 | COc1cc(OC)cc(C(=O)NC(C(=O)NCCN(C)C)C23CC4CC(CC(C4)C2)C3)c1 (stereo not drawn) | 6.6%
36 | CC(C)C(c1nnnn1C1CCCCC1)N1CCN(C(=O)c2ccco2)CC1 (stereo not drawn) | 4.48%
37 | COc1cc(CNC2CCCCCC2)cc(OC)c1OC | 2.94%
38 | Oc1oc(-c2ccco2)nc1C=Nc1cccc(Cl)c1 | 8.03%
39 | CC(=O)Nc1nc(SCc2cccc3ccccc23)n[nH]1 | 10.9%
40 | Cn1cc(Cl)c(C(=O)Nc2cccc(Cl)c2Cl)n1 | 10.3%
41 | CCC(Sc1nc2c(cnn2-c2ccc(Cl)cc2)c(=O)[nH]1)C(=O)OC (stereo not drawn) | 7.35%
42 | COC(=O)c1nc(N)sc1-c1ccc(Cl)cc1 | 14.4%
43 | NC(=O)COn1c(SCC(N)=O)nc2ccccc2c1=O | 12.8%
44 | Cc1cc[n+](CC(=O)Nc2ccccc2)cc1.[Br-] | 19.7%
45 | CC(C(=O)NCCCc1ccccc1)n1cccc1C(=O)c1ccccc1 (stereo not drawn) | 10.3%
46 | COc1ccc(/C=N\NC(=O)c2ccc([N+](=O)[O-])cc2)cc1COc1c(F)c(F)cc(F)c1F | 10.6%

Row | Structure (SMILES) | hERG current change (%, negative = inhibition) at 1uM
47 | CCCN(CCC)C(=O)c1ccc2c(c1)S(=O)(=O)c1ccccc1C2=O | -3.2%
48 | CC(=O)Nc1ccc(NC(=O)CSc2ccc(C)cc2)cc1 | 6.31%
49 | CCC(C)NC(=O)NC(=O)N(C1CCCCC1)S(C)(=O)=O (stereo not drawn) | 1.38%
50 | C=C(C)Cn1c(CCNC(=O)CCC)nc2ccccc21 | 21.1%
51 | Cn1c(=O)[nH]c(=O)c2c1nc(Br)n2CC(O)COc1ccccc1 (stereo not drawn) | 6.5%
52 | CC(OC(=O)CCc1nc2ccccc2[nH]c1=O)C(=O)c1ccccc1 (stereo not drawn) | 8.12%
53 | CCCN1C2CCCC1CC(NC(=O)c1cc(OC)cc(OC)c1)C2 (stereo not drawn) | 3.76%
54 | Cc1c(OCC(=O)NCC(O)c2ccccc2)ccc2c(-c3ccccc3)cc(=O)oc12 (stereo not drawn) | 10.3%
55 | Nc1cc(=O)nc(SCc2ccccc2)n1Cc1ccco1 | -7.62%
56 | O=[N+]([O-])c1cccc2ccc(/C=C/c3ccc(C(F)(F)F)cc3)nc12 | 1.61%
57 | COc1ccccc1-c1ccc(/C=C2/C=C(C)OC2=O)o1 | 27.1%
58 | CCCc1cc(=O)oc2cc(C)cc(OCC(=O)NCCCN3CCOCC3)c12 | 12.9%
59 | CC1CCCC/C1=N\NC(=S)Nc1cccnc1 (stereo not drawn) | 12.2%
60 | O=[N+]([O-])c1ccc(S(=O)(=O)Nc2ccc(S(=O)(=O)N3CCCC3)cc2)cc1 | 7.82%
61 | Cc1c(C(=O)Nc2cccc(Cl)c2)cn2c(nc3ccccc32)c1C#N | 11.5%
62 | Clc1ccc(C(c2ccc(Cl)cc2)n2cc[n+](CC(OCc3ccc(Cl)cc3Cl)c3ccc(Cl)cc3Cl)c2)cc1.[Cl-] (stereo not drawn) | -6.49%
63 | CC(=O)NC(CC(=O)NCCCn1ccc2ccccc21)c1ccccc1 (stereo not drawn) | 19.8%
64 | CCOC(=O)C1CCN(CCC(=O)Nc2ccc(C)cc2)CC1 | 1.98%
65 | N/C(=N\OC(=O)c1cccs1)C1(c2ccc(Cl)cc2Cl)CC1 | 12.8%
66 | Cc1ccc(S(=O)(=O)c2c(C)cc(C)nc2Cl)c(C)c1 | -1.51%
67 | Cc1c(S(=O)(=O)N2CCN(c3ccccc3)CC2)c(=O)n(C)c(=O)n1C | 7.26%
68 | Cc1cc(C(=O)NC2CC(C)(C)Cc3c2cnn3-c2ccccc2C)c(C)o1 (stereo not drawn) | 4.68%
69 | COc1ccccc1-n1ccnc(SCC(=O)NCc2ccccc2Cl)c1=O | 14.6%

Row | Structure (SMILES) | hERG current change (%, negative = inhibition) at 1uM
70 | COc1cc(/C=N/NC(=O)c2ccc(-c3ccccc3)cc2)cc(OC)c1OC | -0.437%
71 | COc1ccc(NC(=O)CSc2nnc(NC(=O)C3CC3)s2)cc1OC | 1.97%
72 | Cc1cccc(C(=O)NCC(=O)OCC(=O)N2CCN(S(=O)(=O)c3ccc(C)cc3C)CC2)c1 | -12.4%
73 | CCCC(=O)Nc1ccc(NC(=O)c2cccc(OC)c2)nc1 | 3.64%
74 | CS(=O)(=O)N(CC(=O)NCC1CCCO1)c1ccc(F)c(Cl)c1 (stereo not drawn) | -5.4%
75 | CNC(=S)N1CCC(NC(=O)C(Cc2ccccc2)NC(C)=O)CC1 (stereo not drawn) | 5.77%
76 | O=C(Nc1nnc(SCc2ccc(Cl)cc2)s1)C1CC(=O)N(Cc2ccccc2)C1 (stereo not drawn) | 17%
77 | C=CCNc1nc(N)c([N+](=O)[O-])c(N2CCCCCC2)n1 | 0.263%
78 | N#Cc1ccccc1OCC(=O)Nc1c(C(=O)C2CC2)oc2ccccc12 | 8.85%
79 | CC(C)NC(=O)c1ccc(-c2ccccc2C(F)(F)F)o1 | 1.66%
80 | COCc1cc(Sc2c(Cl)cccc2Cl)nc(-c2ccccc2)n1 | 14.8%
81 | Cc1cc(NC(=O)CCC(=O)N(CC(=O)NCC2CCCO2)Cc2ccc(F)cc2)no1 (stereo not drawn) | 6.02%
82 | CC(=O)c1ccc(NC(=O)c2cnsn2)cc1 | 6.31%
83 | COCCn1c(Cc2ccccc2)nnc1SCC(=O)NC(C)(C)C | 15.5%
84 | O=C(Cc1ccccc1)Nc1nc2ccccc2[nH]1 | 8.46%
85 | CN(C)CCOC(C)(c1ccccc1)c1ccccn1.O=C(O)CCC(=O)O (stereo not drawn) | 10.5%
86 | O=S(=O)(N/N=C\c1cccnc1)c1ccccc1 | 11.6%
87 | Cc1ccc(SCCNC(=O)c2ccccc2F)cc1 | 11%
88 | O=[N+]([O-])c1cccc2c(N3CCCC3)ccnc12 | -84.4%
89 | CCOC(=O)c1ccc(-n2c(C)nc3c(cnn3-c3ccccc3Cl)c2=O)cc1 | 5.79%
90 | COc1cc(NS(=O)(=O)c2ccc(NC(=S)NC(=O)/C=C/c3ccc(F)cc3)cc2)ncn1 | 3.23%
